Laboratory results: the supplement of paper PMC8728848
This is one part of the list.

Key:
Assay in all cases: glycan array binding signal (z-score within array); higher = stronger binding
Details in all cases: glycan notation: IUPAC condensed, linker removed
Gal(a1-6)Glc = target: Gal(a1-6)Glc
Outline: (§1)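 Glycan array data were curated from 3228 arrays in the Consortium for Functional Glycomics database and kept only where the protein sequence was available. Glycan names were converted to IUPAC-condensed notation, and columns mapping to the same glycan were averaged. The binding signal is a within-array Z-score, averaged across arrays of the same protein sequence at different concentrations or buffers and across linkers. Negative Z-scores can be read as non-binding.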

Gal(b1-2)Gal = target: Gal(b1-2)Gal
Outline: as §1

Gal(b1-3)Gal = target: Gal(b1-3)Gal
Outline: as §1

Gal(b1-3)Gal(b1-4)GlcNAc = target: Gal(b1-3)Gal(b1-4)GlcNAc
Outline: as §1

Gal(b1-3)GalNAc = target: Gal(b1-3)GalNAc
Outline: as §1

[1] = target: Gal(b1-3)GalNAc(a1-3)[Fuc(a1-2)]Gal(b1-4)Glc
Outline: as §1

[2] = target: Gal(b1-3)GalNAc(a1-3)[Fuc(a1-2)]Gal(b1-4)GlcNAc
Outline: as §1

Gal(b1-3)GalNAc(b1-3)Gal = target: Gal(b1-3)GalNAc(b1-3)Gal
Outline: as §1

[3] = target: Gal(b1-3)GalNAc(b1-3)Gal(a1-4)Gal(b1-4)Glc
Outline: as §1

[4] = target: Gal(b1-3)GalNAc(b1-4)Gal(b1-4)Glc
Outline: as §1

[5] = target: Gal(b1-3)GalNAc(b1-4)[Neu5Ac(a2-3)]Gal(b1-4)Glc
Outline: as §1

Gal(b1-3)GlcNAc = target: Gal(b1-3)GlcNAc
Outline: as §1

[6] = target: Gal(b1-3)GlcNAc(a1-3)Gal(b1-4)GlcNAc
Outline: as §1

[7] = target: Gal(b1-3)GlcNAc(a1-6)Gal(b1-4)GlcNAc
Outline: as §1

Gal(b1-3)GlcNAc(b1-2)Man = target: Gal(b1-3)GlcNAc(b1-2)Man
Outline: as §1

[8] = target: Gal(b1-3)GlcNAc(b1-2)Man(a1-3)[Gal(b1-3)GlcNAc(b1-2)Man(a1-6)]Man(b1-4)GlcNAc(b1-4)GlcNAc
Outline: as §1

[9] = target: Gal(b1-3)GlcNAc(b1-2)Man(a1-3)[Gal(b1-3)GlcNAc(b1-2)Man(a1-6)]Man(b1-4)GlcNAc(b1-4)[Fuc(a1-6)]GlcNAc
Outline: as §1

[10] = target: Gal(b1-3)GlcNAc(b1-2)Man(a1-3)[GlcNAc(b1-4)][Gal(b1-3)GlcNAc(b1-2)Man(a1-6)]Man(b1-4)GlcNAc(b1-4)GlcNAc
Outline: as §1

[11] = target: Gal(b1-3)GlcNAc(b1-2)[Gal(b1-3)GlcNAc(b1-6)]Man(a1-6)[Gal(b1-3)GlcNAc(b1-2)Man(a1-3)]Man(b1-4)GlcNAc(b1-4)GlcNAc
Outline: as §1

[12] = target: Gal(b1-3)GlcNAc(b1-3)Gal(b1-3)GlcNAc
Outline: as §1

[13] = target: Gal(b1-3)GlcNAc(b1-3)Gal(b1-4)Glc
Outline: as §1

[14] = target: Gal(b1-3)GlcNAc(b1-3)Gal(b1-4)GlcNAc
Outline: as §1

[15] = target: Gal(b1-3)GlcNAc(b1-3)Gal(b1-4)GlcNAc(b1-2)Man(a1-3)[Gal(b1-3)GlcNAc(b1-3)Gal(b1-4)GlcNAc(b1-2)Man(a1-6)]Man(b1-4)GlcNAc(b1-4)GlcNAc
Outline: as §1

[16] = target: Gal(b1-3)GlcNAc(b1-3)Gal(b1-4)GlcNAc(b1-2)[Gal(b1-3)GlcNAc(b1-3)Gal(b1-4)GlcNAc(b1-6)]Man(a1-6)[Gal(b1-3)GlcNAc(b1-3)Gal(b1-4)GlcNAc(b1-2)Man(a1-3)]Man(b1-4)GlcNAc(b1-4)[Fuc(a1-6)]GlcNAc
Outline: as §1

[17] = target: Gal(b1-3)GlcNAc(b1-3)Gal(b1-4)GlcNAc(b1-3)Gal(b1-4)GlcNAc(b1-2)[Gal(b1-3)GlcNAc(b1-3)Gal(b1-4)GlcNAc(b1-3)Gal(b1-4)GlcNAc(b1-6)]Man(a1-6)[Gal(b1-3)GlcNAc(b1-3)Gal(b1-4)GlcNAc(b1-3)Gal(b1-4)GlcNAc(b1-2)Man(a1-3)]Man(b1-4)GlcNAc(b1-4)[Fuc(a1-6)]GlcNAc
Outline: as §1

[18] = target: Gal(b1-3)GlcNAc(b1-3)Gal(b1-4)GlcNAc(b1-6)[Gal(b1-3)GlcNAc(b1-3)]Gal(b1-4)Glc
Outline: as §1

[19] = target: Gal(b1-3)GlcNAc(b1-3)Gal(b1-4)[Fuc(a1-3)]GlcNAc
Outline: as §1

[20] = target: Gal(b1-3)GlcNAc(b1-3)Gal(b1-4)[Fuc(a1-3)]GlcNAc(b1-6)[Gal(b1-3)GlcNAc(b1-3)]Gal(b1-4)Glc
Outline: as §1

[21] = target: Gal(b1-3)GlcNAc(b1-3)GalNAc
Outline: as §1

[22] = target: Gal(b1-3)GlcNAc(b1-6)Gal(b1-4)GlcNAc
Outline: as §1

[23] = target: Gal(b1-3)GlcNAc(b1-6)GalNAc
Outline: as §1

[24] = target: Gal(b1-3)GlcNAc(b1-6)[Gal(b1-3)]GalNAc
Outline: as §1

Gal(b1-3)GlcNAc6S = target: Gal(b1-3)GlcNAc6S
Outline: as §1

[25] = target: Gal(b1-3)[Fuc(a1-4)]GlcNAc
Outline: as §1

[26] = target: Gal(b1-3)[Fuc(a1-4)]GlcNAc(b1-2)Man
Outline: as §1

[27] = target: Gal(b1-3)[Fuc(a1-4)]GlcNAc(b1-2)Man(a1-3)[Gal(b1-3)[Fuc(a1-4)]GlcNAc(b1-2)Man(a1-6)]Man(b1-4)GlcNAc(b1-4)[Fuc(a1-6)]GlcNAc
Outline: as §1

[28] = target: Gal(b1-3)[Fuc(a1-4)]GlcNAc(b1-3)Gal(b1-3)[Fuc(a1-4)]GlcNAc
Outline: as §1

[29] = target: Gal(b1-3)[Fuc(a1-4)]GlcNAc(b1-3)Gal(b1-4)[Fuc(a1-3)]GlcNAc
Outline: as §1

[30] = target: Gal(b1-3)[Fuc(a1-4)]GlcNAc(b1-6)GalNAc
Outline: as §1

[31] = target: Gal(b1-3)[GlcNAc(b1-6)]GalNAc
Outline: as §1

[32] = target: Gal(b1-3)[Neu5Ac(a2-6)]GalNAc
Outline: as §1

[33] = target: Gal(b1-3)[Neu5Ac(a2-6)]GlcNAc(b1-4)Gal(b1-4)Glc
Outline: as §1

[34] = target: Gal(b1-3)[Neu5Ac(b2-6)]GalNAc
Outline: as §1

Gal(b1-4)Gal = target: Gal(b1-4)Gal
Outline: as §1

[35] = target: Gal(b1-4)GalNAc(a1-3)[Fuc(a1-2)]Gal(b1-4)GlcNAc
Outline: as §1

B1: AFCNVH (Aspergillus fumigatus) (protein)
chain: MSLRGFHTTCDTIVLKDKHILSSRCKRPDGTYSFSEIDLNDCLGNNNGKFVWGGESFVDSASQVNLALEGGEGRPMLHAQLNDWHGSVQSASVNLGECIQNEAGGLEYMHC
glycan array binding signal (z-score) (Gal(a1-6)Glc): -0.553
glycan array binding signal (z-score) (Gal(b1-2)Gal): -0.413
glycan array binding signal (z-score) (Gal(b1-3)Gal): -0.397
glycan array binding signal (z-score) (Gal(b1-3)Gal(b1-4)GlcNAc): -1.56
glycan array binding signal (z-score) (Gal(b1-3)GalNAc): -0.335
glycan array binding signal (z-score) [1]: -0.344
glycan array binding signal (z-score) [2]: 0.111
glycan array binding signal (z-score) (Gal(b1-3)GalNAc(b1-3)Gal): -0.352
glycan array binding signal (z-score) [3]: -0.212
glycan array binding signal (z-score) [4]: -0.3
glycan array binding signal (z-score) [5]: -0.311
glycan array binding signal (z-score) (Gal(b1-3)GlcNAc): -0.372
glycan array binding signal (z-score) [6]: -0.015
glycan array binding signal (z-score) [7]: -0.332
glycan array binding signal (z-score) (Gal(b1-3)GlcNAc(b1-2)Man): -0.247
glycan array binding signal (z-score) [8]: -0.17
glycan array binding signal (z-score) [9]: -0.33
glycan array binding signal (z-score) [10]: 2.36
glycan array binding signal (z-score) [11]: -0.413
glycan array binding signal (z-score) [12]: -0.453
glycan array binding signal (z-score) [13]: -0.449
glycan array binding signal (z-score) [14]: -0.612
glycan array binding signal (z-score) [15]: -0.427
glycan array binding signal (z-score) [16]: 0.48
glycan array binding signal (z-score) [17]: 0.093
glycan array binding signal (z-score) [18]: -0.193
glycan array binding signal (z-score) [19]: -0.272
glycan array binding signal (z-score) [20]: -0.457
glycan array binding signal (z-score) [21]: -0.414
glycan array binding signal (z-score) [22]: -0.391
glycan array binding signal (z-score) [23]: -0.391
glycan array binding signal (z-score) [24]: -0.007
glycan array binding signal (z-score) (Gal(b1-3)GlcNAc6S): -0.148
glycan array binding signal (z-score) [25]: -0.103
glycan array binding signal (z-score) [26]: -0.254
glycan array binding signal (z-score) [27]: 0.074
glycan array binding signal (z-score) [28]: -0.116
glycan array binding signal (z-score) [29]: -0.381
glycan array binding signal (z-score) [30]: -0.427
glycan array binding signal (z-score) [31]: 0.21
glycan array binding signal (z-score) [32]: -0.504
glycan array binding signal (z-score) [33]: -0.502
glycan array binding signal (z-score) [34]: -0.474
glycan array binding signal (z-score) (Gal(b1-4)Gal): -0.384
glycan array binding signal (z-score) [35]: -0.059
